# Experimental data as given in PubChem BioAssay AID686971 (National Center for Advancing Translational Sciences (NCATS), 2013).
# The campaign covered roughly 360,000 compounds. About 7,500 (2.1%) were called active. Inconclusive results, whose numbers are uncertain, are shown with a selection of clear calls. Calls come from the whole dose curve; as a rule, active = well fitted cell-killing curve with a large enough effect; inconclusive = small, poorly fitted or top-dose-only effect, or effect the other way, or another doubt; inactive = no such curve, though single readings can be large or run the other way. No potency is given beside an inconclusive call; the fits are too rough.
# Assay: qHTS for induction of synthetic lethality in tumor cells producing 2HG: qHTS for the HT-1080-IDH1KD cell line;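 for activity, negative = toxicity: 0% = DMSO wells and -100% = cell-free medium wells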
# Settings: HT-1080 IDH1 knockdown viability, ATP luminescence, 48 h; activity, negative = toxicity: at 46.1 µM (top of the series) unless noted
# In short: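 Assay cells: HT-1080 with IDH1 knockdown, 750 per well, RPMI/5% FBS. Exposure: 48 h at 37 °C following 2 h pre-incubation. Read: CellTiter-Glo luminescence; fitted concentration-response, curve class assigned.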
# Potency is the fitted concentration of half-maximal effect; tags give direction and shape of the fitted curve.
SMILES,"activity, negative = toxicity",Potency
O=C(CN(Cc1ccccc1F)S(=O)(=O)c1ccc(Cl)cc1)NCCCO,inactive: -2.89%,
CC(=O)c1ccccc1NC(=O)CCCNC(=O)c1ccc(Cl)cc1,inactive: -5.64%,
CCOC(=O)C1(C)CCN1C(=O)c1ccc(Cl)cc1Cl (stereo not drawn),inactive: 0%,
COc1ccc(NC(=O)/C(C#N)=C\C=C\c2ccco2)cc1,,active: 20.6 µM
O=C(CSc1ccccc1)N/N=C/c1ccccc1O,,active: 8.2 µM
CCCCC1CCC(C(=O)Nc2ccccc2N2CCOCC2)CC1 (stereo not drawn),inactive: 7.46%,
CCOC(=O)N1CCN(C(=O)C2CC(c3ccccc3OC)=NO2)CC1 (stereo not drawn),,"inconclusive [rising, partial curve, poor fit]"
O=C(CCc1nnc(-c2ccc3c(c2)OCO3)o1)NCCc1ccccc1F,,"inconclusive [cytotoxic, single point]"
O=C(O)CC1(CC(=O)Nc2cc(C(F)(F)F)cc(C(F)(F)F)c2)CCCCC1,,"inconclusive [cytotoxic, partial curve]"
CC=Cc1cc2c(c(=O)o1)C(=O)C(O)C(C)O2 (stereo not drawn),,"inconclusive [cytotoxic, single point]"
Cc1cccn2c(=O)c(C=O)c(Cl)nc12,,"inconclusive [cytotoxic, single point]"
COc1ccc(CCN2CCCC(CN(C)Cc3cc(OC)c(OC)c(OC)c3)C2)cc1 (stereo not drawn),,"inconclusive [cytotoxic, partial curve]"
CCN(CC)CCNC(=O)c1c(O)c2cccc3c2n(c1=O)CCC3,,"inconclusive [cytotoxic, single point]"
CCOC(=O)Nc1nc2ccc(Cn3cccc3)cc2[nH]1,,"inconclusive [cytotoxic, full curve]"
Cc1cccc(N2CCN(C(C(=O)NCc3ccccc3)c3ccco3)CC2)c1C (stereo not drawn),,"inconclusive [cytotoxic, single point]"
COc1ccc(/C=C/C(=O)c2ccc(C)c([N+](=O)[O-])c2)cc1O,,"inconclusive [cytotoxic, single point]"
CCOc1ccc(Nc2nc(NCC3CCCO3)c3ccccc3n2)cc1 (stereo not drawn),,"inconclusive [cytotoxic, single point]"
COc1ccc(-c2ccc(CCC(=O)O)n2-c2cc(OC)ccc2OC)cc1,,"inconclusive [cytotoxic, single point]"
COc1ccc(-c2cc(-c3ccc(OC)cc3)nc(-c3ccc4c(c3)NC(=O)CO4)c2)cc1,,"inconclusive [cytotoxic, single point]"
O=C1CC(c2ccc(Cl)cc2)Oc2ccc(Cl)cc21 (stereo not drawn),,"inconclusive [cytotoxic, single point]"
CCC1=Nc2cc(C(=O)NCc3ccco3)ccc2Sc2ccccc21,,active: 5.8 µM
O=C(Nc1ccnn1C1CCN(C(=O)c2cc(Cl)ccc2F)CC1)C1CCOC1 (stereo not drawn),,"inconclusive [rising, single point]"
CCn1cc(S(=O)(=O)CC(=O)Nc2ccc3c(c2)OCCO3)c2ccccc21,inactive: 14.4%,
O=C(Nc1ccc(N2CCN(C(=O)c3ccco3)CC2)cc1)c1ccc(F)cc1,inactive: 17.9%,
CN(CC(=O)Nc1ccc(Cl)c(C(F)(F)F)c1)C(=O)Cc1cccs1,inactive: -26.9%,

SMILES,"activity, negative = toxicity",Potency
O=C(CSc1ncnc2sc3c(c12)CCCCC3)NCc1ccco1,,active: 16.4 µM
COc1ccc(OC)c2sc(N(CCN(C)C)C(=O)/C=C/c3cccs3)nc12,,active: 16.4 µM
CC(CC(=O)Nc1nccs1)c1ccccc1 (stereo not drawn),inactive: -5.53%,
CCN(CC)C(=O)[C@H]1CC(CC(=O)NCCCN(C)C)C(=O)N2CCc3c([nH]c4ccc(OC)cc34)[C@]12C (stereo partly drawn),inactive: 1.02%,
Cc1ccc(C)c(NC(=S)NNC(=S)Nc2ccc(C(C)C)cc2)c1,,active: 23.1 µM
Cn1nc([N+](=O)[O-])nc1Sc1nnc(-c2ccccc2)o1,,"inconclusive [cytotoxic, single point]"
CCOC(=O)c1[nH]c(C)c(/C(O)=C2\C(=O)C(=O)N(CCCN3CCOCC3)C2c2cccs2)c1C (stereo not drawn),,active: 20.6 µM
CN(/N=C/c1ccc(N(C)C)cc1)C1=NS(=O)(=O)c2ccccc21,,"inconclusive [cytotoxic, full curve, poor fit]"
Cc1cc2c3c(c1)C(C)(c1ccccc1)CC(C)(C)N3C(=O)C21C(C#N)=C(N)OC2=C1C(=O)CC(C)(C)C2 (stereo not drawn),,active: 17.8 µM
CCN1C(=O)C2(C(C#N)=C(N)Oc3n[nH]c(COC)c32)c2ccccc21 (stereo not drawn),,"inconclusive [rising, single point]"
COc1cccc(C(=O)SC2=NCCS2)c1,,"inconclusive [cytotoxic, single point]"
Cc1ccc(C(=O)Nc2ccc(NC(=O)c3cccs3)cc2)c(C)c1,,active: 16.4 µM
Cc1cc(NC(=O)c2c(F)cccc2Cl)n(-c2nc3ccccc3[nH]2)n1,,"inconclusive [cytotoxic, single point]"
COc1ccc(CN(C)C(=O)CNC(=O)c2sc3ccccc3c2Cl)c(OC)c1,inactive: -13.7%,
Cc1nc2ccccc2nc(C)c1=NO,inactive: 1.78%,
Cc1ccc(NS(=O)(=O)c2c(C)nc3sccn3c2=O)c(C)c1,inactive: 4.92%,
CCOC(=O)C1=C(CNCc2ccc(C)cc2)NC(=O)NC1c1ccc(OC)cc1 (stereo not drawn),,active: 9.2 µM
COc1ccc(N2CCN(C(=O)c3ccc4c(c3)NC(=O)C(CSCc3ccccc3F)N4)CC2)cc1 (stereo not drawn),,"inconclusive [cytotoxic, single point]"
CCN(Cc1nc2ccccc2c(=O)[nH]1)C(=O)COc1ccccc1Cc1ccccc1,,"inconclusive [cytotoxic, partial curve]"
Cc1ccc(NC(=O)C2C3/C=C\CCCCC32)cc1C (stereo not drawn),inactive: -11.2%,
CSc1ncc2c(n1)-c1cc(C)ccc1SC2,,"inconclusive [cytotoxic, single point]"
CC(C)(C)C(c1nc2ccccc2[nH]1)n1c(-c2cc(Cl)cc(Cl)c2)nc2ccccc21 (stereo not drawn),,"inconclusive [cytotoxic, single point]"
O=C(c1ccc([N+](=O)[O-])cc1[N+](=O)[O-])N1CCc2ccccc21,inactive: -21.4%,
COc1ccc(C2=NOC(C(=O)NCc3ccccc3)C2)cc1 (stereo not drawn),,active: 2.24 µM
COc1ccccc1/C=C/C(=O)OCC(=O)Nc1cc(C(F)(F)F)ccc1N1CCOCC1,,"inconclusive [cytotoxic, partial curve]"

SMILES,"activity, negative = toxicity",Potency
Cc1ccc(-n2nnnc2/C=C\Nc2cc(C)on2)cc1,,"inconclusive [cytotoxic, single point]"
Cc1sc2cc3c(c(C(=O)c4ccccc4)[n+]2c1C)-c1cccc2cccc-3c12,,active: 8.2 µM
Cc1c(N=Nc2c(-c3ccc([N+](=O)[O-])cc3)[nH]n(C(N)=S)c2=O)cccc1[N+](=O)[O-],,"inconclusive [cytotoxic, full curve]"
COc1ccc(NC(=O)c2cccc3c(-c4ccc(O)c(OC)c4)coc23)cc1,,"inconclusive [cytotoxic, single point]"
COc1ccc(NC(=O)C(=O)NCCC2CCCCN2S(=O)(=O)c2ccccc2)cc1 (stereo not drawn),,active: 13 µM
CN(C)S(=O)(=O)c1ccc(S(=O)(=O)Nc2ccc3c(c2)oc2ccccc23)cc1,,"inconclusive [cytotoxic, single point]"
CC(C)(C)c1ccc(C(=O)N2CCNC(=O)C2CC(=O)Nc2ccc(F)cc2)cc1 (stereo not drawn),inactive: -0.512%,
CCOC(=O)C1=C(CC)Nc2ccccc2N=C1NC(=O)c1cc(S(=O)(=O)N2CCOCC2)ccc1C,inactive: -0.52%,
Clc1ccc(CN=C(Nc2ccccc2)NC2CCCCC2)cc1,,active: 16.4 µM
O=C(CSc1nnc(-c2cccnc2)s1)Nc1ccnc2ccccc12,,"inconclusive [cytotoxic, partial curve]"
Cc1ccc(C(=O)N2C(CC(=O)Nc3ccc(Cl)cc3)C(=O)NC3CCCCC32)cc1 (stereo not drawn),,active: 5.17 µM
COc1cccc(/C=N/NC(=O)c2cc3c(OC)cccc3[nH]2)c1O,,"inconclusive [cytotoxic, full curve]"
CCOc1ccccc1CN1CCN(Cc2cc(=O)c3ccccc3[nH]2)CC1CCO (stereo not drawn),inactive: -26.5%,
CCOC(=O)CNC(=O)CSc1nc(C(C)C)nc2c1cnn2-c1ccccc1,inactive: 9.73%,
COc1ccc(C2=NN(c3ccc(C=O)cc3)C(c3ccccc3)C2)cc1 (stereo not drawn),,"inconclusive [cytotoxic, single point]"
CN(C(=O)CSc1nc2c(c(=O)[nH]1)CCCC2)C1CCCCC1,,"inconclusive [cytotoxic, single point]"
CN(C)CCN(Cc1ccco1)C(=O)c1oc2ccccc2c1NC(=O)COc1ccccc1,,"inconclusive [cytotoxic, single point]"
CCCCn1c(NC(=S)Nc2ccccc2)nc2ccccc21,,"inconclusive [cytotoxic, single point]"
Cc1oc(-c2cccc3ccccc23)nc1CN1CCN(c2ncnc3ccccc23)CC1,,"inconclusive [cytotoxic, partial curve]"
O=C(Nc1cccnc1)c1cccnc1,,"inconclusive [cytotoxic, single point]"
O=C(O)CN1CCCCCC1=O,inactive: 3.44%,
O=C(CSc1nc(-c2ccccc2)cs1)Nc1nccs1,,"inconclusive [cytotoxic, single point]"
CCc1ccc(-c2cc(C(=O)Nc3c(C)n(C)n(-c4ccccc4)c3=O)c3ccccc3n2)s1,,"inconclusive [cytotoxic, single point]"
